In publication PMC4336329 (PLoS ONE, 2015):
In all, about 310,000 compounds went through this assay and about 14,000 (4.5%) showed an effect of 50% or more. The effect is printed as a negative number. This is one part of the list.

Each molecule was assayed against human ether-à-go-go-related gene (hERG) potassium channel (human, UniProt Q12809) (assay: primary screen, population patch clamp on CHO cells stably expressing hERG).
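Further: peak tail current of the secondary pulse compared with the same well before compound.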

human ether-à-go-go-related gene (hERG) potassium channel, sequence (Q12809 whole entry, looked up): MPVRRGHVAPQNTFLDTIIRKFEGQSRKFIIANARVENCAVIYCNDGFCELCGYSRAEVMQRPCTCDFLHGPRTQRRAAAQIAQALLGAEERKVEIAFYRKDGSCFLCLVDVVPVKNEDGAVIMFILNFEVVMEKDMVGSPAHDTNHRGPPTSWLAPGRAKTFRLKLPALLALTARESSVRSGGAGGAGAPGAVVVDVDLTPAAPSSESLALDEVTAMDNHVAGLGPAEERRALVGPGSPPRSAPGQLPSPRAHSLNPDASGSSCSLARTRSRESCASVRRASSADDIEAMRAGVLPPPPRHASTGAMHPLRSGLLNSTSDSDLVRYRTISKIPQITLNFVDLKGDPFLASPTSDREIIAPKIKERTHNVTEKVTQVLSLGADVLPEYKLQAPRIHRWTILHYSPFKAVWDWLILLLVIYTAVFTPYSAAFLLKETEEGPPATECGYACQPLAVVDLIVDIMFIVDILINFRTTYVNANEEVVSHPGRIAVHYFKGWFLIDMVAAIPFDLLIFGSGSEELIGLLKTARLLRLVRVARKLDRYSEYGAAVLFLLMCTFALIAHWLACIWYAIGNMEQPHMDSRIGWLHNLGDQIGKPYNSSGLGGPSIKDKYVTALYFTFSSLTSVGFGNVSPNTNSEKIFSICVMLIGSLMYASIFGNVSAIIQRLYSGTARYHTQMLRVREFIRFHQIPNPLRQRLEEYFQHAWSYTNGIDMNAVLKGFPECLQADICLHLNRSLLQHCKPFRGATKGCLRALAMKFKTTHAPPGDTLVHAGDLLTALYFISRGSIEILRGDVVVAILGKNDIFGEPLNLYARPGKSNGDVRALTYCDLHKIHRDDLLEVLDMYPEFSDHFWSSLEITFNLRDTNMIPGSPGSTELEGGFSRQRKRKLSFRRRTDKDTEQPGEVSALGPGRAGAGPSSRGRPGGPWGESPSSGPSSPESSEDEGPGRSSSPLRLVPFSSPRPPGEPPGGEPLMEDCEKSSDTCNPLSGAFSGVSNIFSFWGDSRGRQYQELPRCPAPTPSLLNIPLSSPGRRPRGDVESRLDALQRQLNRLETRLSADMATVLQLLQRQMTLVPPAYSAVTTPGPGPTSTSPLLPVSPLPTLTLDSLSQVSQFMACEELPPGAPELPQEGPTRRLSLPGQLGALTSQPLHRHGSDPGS

Compound	hERG current change (%, negative = inhibition) at 10uM [%]
CC1CCN(C(=O)CSc2nc3c(c(=O)n2C)SCC3)CC1	-5.95
Cc1nnc2n(Cc3ccccc3)c(=O)c3c4c(sc3n12)COC(C)(C)C4	-26.4
CCOc1ccc(C(C)NC(=S)NC2CCCCC2)cc1OCC (stereo not drawn)	10.7
CCNS(=O)(=O)c1ccc(CCC(=O)NC2CCCC2)cc1	16.2
Cc1ccc(OC(=O)CCC(=O)NC(C)c2ccccc2)cc1 (stereo not drawn)	12.6
CCCCCn1c(C(C)NC(=O)CCC)nc2ccccc21 (stereo not drawn)	-48.4
COC(CNC(=O)CNC(=S)N(CCCN1CCOCC1)Cc1cccs1)OC	6.42
Cc1ccc2nc(NC(=O)c3ccc4ncsc4c3)sc2c1	11.7
O=Cc1cccn1-c1ccccc1	12.4
Cc1cc(C)c2cc(C(=O)Nc3ccc(C)c(F)c3)[nH]c2c1	16.4
C=CCn1c(NCc2ccco2)nc2ccccc21	-8.07
O=C(NCc1cccs1)C1CCCN(S(=O)(=O)c2cccc3cccnc23)C1 (stereo not drawn)	-27.6
CN(C)/C=N/c1sc2c(c1C#N)CC(C)(C)NC2(C)C	9.17
Cc1onc(-c2ccccc2)c1C(=O)OCC(=O)c1ccccc1	-8.88
COc1cc2cc(CCOC(=O)c3ccc(C(F)(F)F)cc3)oc(=O)c2cc1OC	-11.4
CCN(CC)CCCNCC(=O)Nc1cc(C)on1.O=C(O)C(=O)O	8.7
O=C(NC(=S)Nc1ccc(Br)cc1)C1CCCCC1	6.84
Cc1cc(NC(=O)c2cccc(C)c2[N+](=O)[O-])no1	16.1
Cc1cc(C(F)(F)F)nc(SCC(=O)Nc2cc(C)on2)n1	1.87
COc1ccccc1C(=O)Nc1nnc(S(=O)(=O)N2CCOCC2)s1	8.62
Cl.NS(=O)(=O)c1ccc(CCNCc2ccccc2OCc2ccc(Cl)cc2)cc1	-73.1
O=C(Cn1cncn1)NCc1cccc(C(F)(F)F)c1	20.8
Cc1nc2cc(C(=O)N3CCc4ccccc43)ccc2n1-c1ccc(F)c(F)c1	-69.7

Compound	hERG current change (%, negative = inhibition) at 10uM [%]
O=[N+]([O-])c1ccc(C(O)C(CO)NC(=S)Nc2ccccc2)cc1 (stereo not drawn)	-13.6
CC1=Nn2c(nnc2-c2ccc(F)cc2)SC1	6.71
CN1C(=O)/C(=C/c2cccc(Cl)c2)Sc2ccc(C(=O)NCc3cccnc3)cc21	-18
Cc1ccc2cccc(OCCCOc3ccccc3CO)c2n1	-0.581
COCC(C)N1CCC(n2nccc2NC(=O)CCOc2ccccc2)CC1 (stereo not drawn)	-3.26
CC(OC(=O)c1ccc2c(c1)OCCO2)C(=O)NC1CCCCC1C (stereo not drawn)	-5.05
CCOc1ccc(Oc2nc(N(CC)CC)nc(N3CCOCC3)n2)nn1	5.12
Cc1cc2c(C)nc(-c3ccccc3)nc2o1	-4.28
O=C(N/C(=C/c1cccs1)C(=O)N1CCOCC1)c1cccs1	-8.41
Cc1ccc(C)c(S(=O)(=O)N2CCCOC2CNC(=O)C(=O)NCCc2ccco2)c1 (stereo not drawn)	-2.72
O=C(CNC(=O)c1nc[nH]c1C(=O)NCc1ccccc1)OCc1ccccc1	-15.4
NS(=O)(=O)c1ccc(NC(=S)N2CCC(Cc3ccccc3)CC2)cc1	-0.397
CN1C(C)(C)CC(NC(=O)CCC(=O)NC2CC(C)(C)N(C)C(C)(C)C2)CC1(C)C	1.51
CC1(C)CC(=O)C=C(NCc2ccc(C(=O)O)cc2)C1	3.79
CN(C(=O)Oc1ccc(C(=O)c2ccc(Cl)cc2)cc1)c1ccccc1	15.4
C=CCOc1c(CNc2cccc(C(=O)O)c2)cccc1OC	-5.45
Cc1ccc(NC(=O)CCn2cccc2)cc1Cl	11.9
COc1ccccc1/C=C/c1nc(S(=O)(=O)c2ccccc2)c(NCCN(C)C)o1	-4.99
Cc1ccc(OCCCn2ccnc2)cc1C	-4.22
Cn1nnnc1SCC(=O)Nc1ccc(S(=O)(=O)N2CCOCC2)cc1	3.21
Cc1cc2[nH]c(=O)c(=O)[nH]c2cc1S(=O)(=O)NCc1ccccc1	22.8
NC(=O)[C@@H]1CCCNc2c(I)cc([N+](=O)[O-])cc2C(=O)N[C@@H](CCCN=C(N)N)C(=O)N[C@@H](CCCN=C(N)N)C(=O)N1	9.33
